According to PubChem BioAssay AID1508624 (National Center for Advancing Translational Sciences (NCATS), 2021):
In all, about 48,000 compounds went through this assay and about 120 (0.25%) were called active. About 4% were inconclusive and are not listed. Calls follow the shape of the dose curve; as a rule, active = well fitted activation curve with a large enough effect; inconclusive = small, poorly fitted or top-dose-only effect, or another doubt; inactive = no such curve, though single readings can be large or run the other way. This is one part of the list.

Assay: Primary qHTS for Identification of Small Molecule Activators of Huntingtin-Antisense Promoter Activity; also: nearly all actives have a fitted effect of over 55% in size
Details: HEK293 HTT-AS promoter firefly luciferase reporter (activity 0% = vehicle and -100% = no light), 24 h; series mostly up to 57.5 µM; activity change, positive = activation: at the top concentration
Summary of the method: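 Firefly luciferase readout (Dual-Glo, 10 min RT) after 24 h, 37 °C compound exposure (final up to 57.5 uM) of HEK293 reporter cells cultured 24 h beforehand; PTC124 at 50 uM final as control inhibitor; activity scaled vehicle 0%, zero RLU -100%.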

Activity change, positive = activation, inactive:
CN(C)c1ccc(C2Nc3ccc4ccccc4c3C3=C2C(=O)CC(C)(C)C3)cc1Br (stereo unspecified) -15.5%
COc1ccc(CNC(=O)c2cc(-c3ccc(C)c(C)c3)n[nH]2)cc1 24.3%
CCN(C(=O)c1cc(S(=O)(=O)N2CCc3ccccc32)cn1C)c1cccc(C)c1 -31.9%
CC1=C(C(N)=O)C(c2ccc(F)cc2)n2nc(-c3ccc(N(C)C)cc3)nc2N1 (stereo unspecified) -12.2%
CNS(=O)(=O)c1cn(CC(=O)Nc2ccc(C)c(N(C)C)c2)cc1S(=O)(=O)NC -12.2%
Cc1ccc2c(=O)c(C(=O)c3ccc(F)cc3)cn(CC(=O)NCc3ccccc3Cl)c2n1 -12.5%
Cc1ccc(-c2nn(CC(=O)NC3CCCCC3)c3c2cnc2ccccc23)cc1 -5.84%
Cc1ccc(Cl)cc1N1CCN(C(=O)c2cccn2-c2nnc(N3CCCC3)s2)CC1 -32.4%
Oc1ccc(C(O)CNCCCCCCNCC(O)c2ccc(O)c(O)c2)cc1O (stereo unspecified) -11.6%
CC(C)(C)OC(=O)N1CCC(c2c(C(=O)NCc3ccc4c(c3)OCO4)cnn2-c2ccccc2Cl)CC1 -9.03%
CC(C)OP(=O)(CP(=O)(OC(C)C)OC(C)C)OC(C)C -2.24%
COc1ccc(C(=O)Nc2nnc(S(=O)(=O)N(CC(C)C)c3ccccc3)s2)cc1 -20.1%
COc1ccc(NC(=O)c2ccc3c(c2)nnn3C2CCCC2)cc1Cl -12.2%
Cc1ccc(Cn2c(C(=O)O)c(CNCc3cccs3)c3ccc(C)cc32)cc1 -32.5%
Cc1ccc(Cl)cc1NC(=O)c1ccc2snnc2c1 -16.5%
COc1cc(NC(=O)NCCn2nnc3cc(S(=O)(=O)N(C)C)ccc32)cc(OC)c1 -1.43%
Cc1ccc(-n2ncc(C(=O)N3CCN(c4ncccn4)CC3)c2C2CCN(C(=O)OC(C)(C)C)CC2)cc1 -2.03%
Cc1cc(C)cc(N2C(=O)CS(=O)(=O)C23C(=O)N(C)c2ccccc23)c1 (stereo unspecified) -8.43%
Cc1nc(-c2ccc(S(=O)(=O)N(C)Cc3ccccc3)cc2)co1 -6.7%
CCn1c2ccccc2c2nnc(N3CCN(c4ccc(OC)cc4)CC3)nc21 -1.32%
CCOC(=O)Cn1nc(C)c(NC(=O)COc2ccc(C)c(C)c2)c1C -10.5%
CCN(CC)C(=O)CSc1cn(CC(=O)N2CCCCCC2)c2ccccc12 -10.3%
Cc1ccc(NC(=O)C2CCN(c3nc4ccccc4nc3C(F)(F)F)CC2)cc1C 2.63%
CCCN(CCC)S(=O)(=O)c1ccc(N2CCCCS2(=O)=O)cc1 0.129%
CCOc1ccc(-n2cc(-c3ccccc3)c3c(NCc4ccc(F)cc4)ncnc32)cc1 -18.7%
COc1cc2ncnc(Nc3cc(Br)c(O)c(Br)c3)c2cc1OC -32.1%
CCCCCc1ccc(-c2ccc(C(=O)Oc3ccc(C(=O)OC)cc3)cc2)nc1 -22%
COc1ccccc1Nc1c2c(nc3ccc(NC(=O)/C=C/c4cc(OC)c(OC)c(OC)c4)cc13)CCCC2 -94%
COc1ccc(CNc2nc(-c3ccc(Cl)cc3)nn2C(=O)c2ccccc2)cc1 1.28%
CC(C)c1ccc(NC(=O)C2Cc3ccccc3N2C(=O)c2ccccc2)cc1 (stereo unspecified) -22.4%
COc1ccccc1CNC(=O)c1ccc(CSc2nc3ccncc3n2Cc2ccccc2C)cc1 -22.8%
COc1ccc(C2c3c(n(C)c4ccccc34)C(=O)N2CC(=O)Nc2ccccc2Cl)cc1 (stereo unspecified) -24.6%
O=C(c1ccc(Nc2nc3ccccc3n3nnnc23)cc1)N1CCN(c2ccc(F)cc2)CC1 -6.93%
COc1cc(NC(=O)c2cc3nc(-c4ccc(C)cc4)cc(C(F)(F)F)n3n2)cc(OC)c1OC -24.8%
CCc1ccc(NC(=O)c2cc(S(=O)(=O)N3CCCCC3)c[nH]2)cc1 -4.03%
Cc1ccc(CNC(=O)c2nnn(Cc3ccc(F)cc3)c2N)cc1 -1.49%
COc1ccc(OCc2ccc(-c3nc(C#N)c(N4CCC(C(N)=O)CC4)o3)o2)cc1 -15.1%
CC(=O)c1cccc(NC(=O)Cn2c(=O)oc3cc(S(=O)(=O)NCc4ccccc4)ccc32)c1 -15.4%
O=S(=O)(Nc1ccc(F)cc1F)c1ccc(Br)s1 -31.3%
CCn1c2c(c(=O)n3ncc(C(=O)Nc4ccc(OC(F)(F)F)cc4)c13)CN(Cc1ccc(OC)cc1)CC2 -11%
Fc1ccc(CNc2ncnc3ccc(F)cc23)cc1 -91.6%
O=S(=O)(N=Cc1c(O)ccc2ccccc12)c1cccs1 29%
Fc1ccc([C@@H]2Nc3ccccc3[C@@H]3C=CC[C@@H]32)cc1 -16.5%
Cc1ccc(C)c(NC(=O)CSc2ncc3c(n2)-c2ccccc2N(Cc2ccccc2C)S3(=O)=O)c1 25%
O=C(Cn1cc(S(=O)(=O)c2ccc(Cl)cc2)c(=O)c2ccccc21)Nc1ccc2c(c1)OCO2 -32.3%
COc1ccc(/C=C/c2nc(C#N)c(N3CCCCCC3)o2)cc1OC -20.4%
COc1ccc(CNS(=O)(=O)c2ccc3c(c2)NC(=O)C(C)C(=O)N3)cc1 (stereo unspecified) -15.3%
Cc1nnc(N2CCC(C(=O)N3CCCCC3)CC2)c2nn(-c3ccccc3)c(C)c12 -12.4%
Cc1ccc(C)c(S(=O)(=O)Nc2ccc3c(c2)CCCN3C(=O)c2cccs2)c1 -23.6%
COc1ccc(C)cc1NS(=O)(=O)c1ccc(-c2cnc(C3CC3)o2)cc1 -54.4%
COc1ccc(CNc2n[nH]c(-c3ccco3)n2)cc1OC -5.58%
CCc1ccc(Nc2ncnc3sc4c(c23)CCCC4)cc1 -32.9%
COc1cc(NC(=O)Cn2c(=O)n(Cc3ccccc3Cl)c(=O)c3cc(OC)c(OC)cc32)cc(OC)c1 -13.4%
CCCN(C(=O)c1cc2c(=O)n(CC)c3ccccc3c2s1)c1ccccc1F -0.908%
CCCc1c(C(=O)OCC)nnc2c(-c3ccccc3)c(C)nn12 -11.9%
COc1ccc(CCN2C(=O)N(c3ccc(F)cc3)C(=O)C2CC(=O)Nc2ccccc2)cc1OC (stereo unspecified) 18.4%
O=C(Nc1ccc(F)c(F)c1)c1cc(S(=O)(=O)NCc2ccc3c(c2)OCO3)ccc1F -27.1%
CCOC(=O)c1nn2c(C(F)(F)F)cc(-c3ccc(C)cc3)nc2c1Cl -13.8%
CCCCC(=O)Nc1nnc(SCc2cc(=O)n3cc(C)ccc3n2)s1 3.19%
COc1ccc(-c2c(C#N)c(SCC(=O)Nc3ccc(C)cc3)nc(C)c2C(=O)Nc2ccccc2)cc1 6.94%
Cc1ccc(CNC(=O)CSc2nc(=O)n(Cc3ccco3)c3c2CCC3)cc1 -9.14%
CC(C)(C)NCC(O)c1ccc(O)c(CO)c1 (stereo unspecified)
COc1ccc(C2=NC3(CCCCCC3)N(CC(=O)Nc3cccc(Cl)c3)C2=O)cc1 -64%
Cc1ccn2c(Nc3ccc4c(c3)OCO4)c(-c3ccc(Cl)cc3)nc2c1 1.53%
COc1cccc(CNC(=O)CN2CCCN(Cc3ccccc3)S2(=O)=O)c1 -14.1%
Cc1ccc2c(c1)cc1c(=O)n(CC(=O)NC(C)CCc3ccccc3)nc(C)n12 (stereo unspecified) -0.95%
O=C(NCc1cccs1)c1ccc(CSc2nc3cccnc3n2Cc2ccc(F)cc2)cc1 -23.9%
Cn1c2c(c(=O)n(C)c1=O)C(c1ccccc1[N+](=O)[O-])CC(=O)N2 (stereo unspecified) -9.54%
COc1ccc(-c2nn(-c3ccc(F)cc3)c3c2cnc2cc4c(cc23)OCO4)cc1 -3.15%
COc1ccccc1CNc1ccc(-c2nc(-c3ccccc3C)no2)cc1[N+](=O)[O-] -6.74%
CCc1ccccc1NC(=O)CSc1nc2n[nH]c(C)c2c(=N)n1-c1cccc(C)c1 -41.6%
Cc1cc(C)cc(NC(=O)C2CCN(C(=O)c3cnn(-c4ccccc4)c3-n3cccc3)CC2)c1 -38.5%
CC1CCn2c(nc3cc(C(=O)NCc4ccc(F)cc4)ccc32)C1 (stereo unspecified) 0.753%
CCC(C(=O)Nc1ccccc1)n1nc(-c2cc(C)ccc2C)ccc1=O (stereo unspecified) -27.8%
Cc1cccc(NC(=O)C2CCCN(S(=O)(=O)c3c(C)n[nH]c3C)C2)c1 (stereo unspecified) -20.4%
CCN1C(=O)N(c2ccc(C(C)=O)cc2)S(=O)(=O)c2ccccc21 -6.97%
CSc1ccc(CCNC(=O)Cn2ncn3c(cc4ccccc43)c2=O)cc1 0.0451%
Cc1ccc(CN2C(=O)C(=O)c3cc(Br)cc(C)c32)cc1 -33.3%
Cc1ccccc1Nc1c(-c2cccnc2)nc2cccc(C)n12 -19.2%
CCOc1ccc(-n2c(=O)c3c(C)c(C)sc3n(CC(=O)Nc3ccc(CC)cc3)c2=O)cc1 -19.5%
CCN(C(=O)c1cc2c(=O)n(CC)c3ccccc3c2s1)c1cccc(C(F)(F)F)c1 -12.5%
Cn1nc(-c2ccc(OCC(=O)Nc3ccc(Cl)cc3)cc2)c2ccccc2c1=O -22.9%
COc1ccc(Br)cc1CNC(=O)c1cnc2sc(N3CCCCCC3)nn2c1=O -36.6%
COc1cccc(NC(=O)Cn2c(=O)ccc3cc(S(=O)(=O)N4CCC(C)CC4)ccc32)c1 -39.4%
COc1ccc(Cl)cc1S(=O)(=O)N1CCN(CC(=O)Nc2ccccc2C(F)(F)F)CC1 -27%
CCOc1ccc(-n2nc3ccc(NC(=O)c4cccc(F)c4)cc3n2)cc1 -20.1%
CCSc1nc2c([nH]c3ccccc32)c(=O)n1-c1cccc(OC)c1 -33.4%
CCOc1ccc(-c2nnc(SCC(=O)NC(C)CC)nc2-c2ccc(OCC)c(OC)c2)cc1OC (stereo unspecified) 8.77%
CC(=O)Nc1nonc1-c1nnc(SCC(=O)Nc2cccc(C)c2C)n1-c1ccccc1 -2.49%
COc1cc(C(=O)Nc2cccc(OCc3cc(=O)n4cc(C)sc4n3)c2)cc(OC)c1OC 0.645%
COc1ccc(Cn2cc(C(=O)c3ccc(F)cc3)c(=O)c3cc4c(cc32)OCCO4)cc1 -21.8%
Cc1nn(C)c(C)c1CCNC(=O)Nc1cccc(Cl)c1C 3.69%
COc1ccc(-c2nc3ccccc3o2)cc1NC(=O)c1ccc(-c2ccc(Br)cc2)o1 4.46%
COc1ccc(-c2nc(CCNC(=O)c3c(F)cccc3Cl)cs2)cc1 -17%
CC1CCN(C(=O)Cn2cc(SCC(=O)Nc3ccccc3C(F)(F)F)c3ccccc32)CC1 -47.5%
CCCCNc1ccc(-c2nc(-c3ccncc3)no2)cc1[N+](=O)[O-] 0.126%
